# Experimental data: the supplement of paper PMC3334620
# Whole data set: some 33,000 sequences, median “E-score (-0.5 to 0.5)” near -0.01, cut for the highest 2% near 0.26. This is one part of the list.
# Molecular target: Ste12 (UniProt P13574)
# Experiment: PBM E-score (8-mer binding enrichment) (E-score (-0.5 to 0.5)); higher = stronger / more preferred TF binding; most listed sequences are background and not binding sites
# Conditions: protein concentration: 200 nM; construct: GST-DNA-binding domain
# Summary of the method: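 For each ungapped eight-base word taken together with its reverse complement, the Universal PBM Analysis Suite assigned an E-score. Binding data came from GST-tagged yeast transcription factors, applied at about 100-200 nM, on universal all-10-mer Agilent arrays made double-stranded by primer extension. Fluorescent anti-GST marked bound protein, and scans were normalised with masliner.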
row,Sequence,PBM E-score
1,ATTATTGC,0.116
2,CCTTGTAA,0.134
3,CCAAACAA,0.125
4,ACACCATG,-0.108
5,GGAAACAA,0.13
6,ACGAATAC,0.0452
7,AATACGGC,0.131
8,AGTTGTGA,0.127
9,AATTACCT,-0.0648
10,GGGCATTA,-0.19
11,CTTAGCTC,-0.112
12,CCTTCCAC,-0.197
13,GCTCACTA,-0.0368
14,ACCGGCAC,-0.028
15,ACAGTGAG,0.0377
16,CTTAGACC,-0.136
17,AGAGGGAG,-0.106
18,AAAATCTT,0.131
19,TCGGTAGA,-0.00813
20,CAGTCTAA,0.12
21,TGACCCCA,-0.128
22,GGCTAGCC,-0.419
23,AGTTAACG,-0.00403
24,ACGGGCTG,-0.0803
25,GGCCGTTA,0.00167

row,Sequence,PBM E-score
1,GGGGGGCA,-0.186
2,GTCGTTTA,0.151
3,ACCCCAGT,-0.0165
4,AGATGATG,-0.0415
5,CTTCCATA,-0.00705
6,CAGGAAGG,-0.212
7,CAGGTAGA,0.0966
8,GAGGCACA,-0.00206
9,AGGAGGCG,-0.217
10,TAAGCGTA,-0.113
11,CGCGGTTC,0.136
12,AAGGTACC,-0.113
13,GTTACAAA,0.384
14,CCAGCGCA,-0.222
15,AGGGGCTC,-0.321
16,TACCCTCA,-0.0714
17,GCCCAGTA,-0.164
18,GACGAACC,-0.181
19,ATGGTAGC,-0.0629
20,ACTTGTAC,0.0044
21,CCTCTTCC,-0.221
22,TTCATGAA,0.228
23,GCGTGTGA,0.159
24,AACGACCT,0.104
25,CTGTGTGA,0.195

row,Sequence,PBM E-score
1,CATTGCGG,0.0911
2,ATCGCAAG,-0.175
3,CAGGGGCG,0.249
4,CGCTTATC,0.12
5,ACCCGTAG,-0.2
6,ACAACCTC,-0.0148
7,GGTGTACA,0.0618
8,CTAAAGTA,-0.129
9,AACGCCTC,-0.124
10,CCAGTAAC,-0.107
11,CCAATTTA,0.201
12,AGAATGGA,0.00637
13,CTTCCCCA,0.0584
14,ATTGCCGA,0.0896
15,AGCCTGCA,0.0896
16,CTATATAG,-0.0246
17,TACTGAGA,-0.0624
18,ACTTCTTA,0.00388
19,AAACGGGA,0.245
20,AAAAATCG,0.0878
21,AAGCTCCT,-0.294
22,AAGTTCCG,-0.0525
23,GTGCAGGA,0.0423
24,CTATGATA,-0.0247
25,CAGCTCTA,-0.241

row,Sequence,PBM E-score
1,GCCCCGAA,0.118
2,CATGGGGG,-0.251
3,TGCCGGCA,0.202
4,AAAGCAGG,-0.0312
5,GCATCCCA,0.017
6,GGTTGGTA,-0.0098
7,CGCTACCG,-0.0911
8,AGCATAGC,-0.283
9,GGTCTCTA,-0.151
10,GGAGTAAC,0.0279
11,AGCGATCA,-0.138
12,CAGCGCGA,-0.113
13,AGCGGGGA,0.111
14,CGGGTTTA,0.304
15,ACACCGCT,-0.0123
16,CATTCTAG,-0.0323
17,ATCTCGAG,0.0611
18,GGGCTAAA,0.0353
19,CACCTACC,-0.116
20,CAGAAAAA,0.18
21,CCAACAGA,-0.0441
22,GCTAGGAA,0.035
23,CCTACGCG,0.0195
24,AGTGCTCG,-0.0472
25,GAGCAATC,0.00029

row,Sequence,PBM E-score
1,GGAGGCCA,-0.191
2,ACCTTCTA,-0.0603
3,GCCCCATA,0.0133
4,AGAGGCAA,-0.177
5,CAACGGTC,-0.13
6,AGAGGCGA,-0.195
7,ACACGTAC,-0.104
8,AATTTAAA,0.269
9,GCTTGGAA,-0.0415
10,AGGTAATG,0.0349
11,AAATTTCT,0.121
12,CCTATGCA,-0.155
13,CACAGAGG,-0.251
14,GGACCTAC,-0.126
15,ACACTTCG,0.109
16,CCTGGCCG,-0.108
17,CTCGTGAC,0.0961
18,ACGACCAA,-0.106
19,ATCTGCCG,-0.0477
20,CGGGGTAA,0.215
21,CATTCGGA,0.107
22,CCATCCAA,-0.0209
23,ACAATTTC,0.0778
24,CTGGTAGA,0.00542
25,CGTGCTAC,-0.178

row,Sequence,PBM E-score
1,ACCTGGTC,-0.0497
2,CGTTGTTC,-0.0423
3,CAAGTAAA,0.164
4,TCTCGCCA,-0.0602
5,CCACACGC,0.0917
6,GACCACGC,-0.0829
7,ACAGGCCT,-0.177
8,CGTAACAC,0.0577
9,CGTTGAAC,-0.115
10,GGGTGGTA,0.141
11,AGCGATAA,0.00154
12,ACAGAGGT,0.027
13,CTTAGAGC,-0.0634
14,AGCTTCCA,0.00321
15,ACCCCCAG,-0.125
16,GTGAATTA,0.231
17,GACCAGTA,-0.0322
18,CCAACTTC,0.0693
19,ATATGGTG,0.102
20,GCTTCCGA,-0.0314
21,CTCTGTAA,0.0369
22,GAGAGTGA,-0.0655
23,AAATGTCA,0.0613
24,ACCCGTCT,-0.0963
25,ACGGAGAG,-0.144

row,Sequence,PBM E-score
1,TCCTCACA,0.036
2,TACTAAAA,0.234
3,ACACTCTA,-0.107
4,ATCGTACA,0.0176
5,AGGTCTCA,0.0909
6,CATCCTAG,-0.0741
7,AGGAAGAG,-0.0797
8,CGGAATAC,0.134
9,ATGCGCAC,0.0144
10,CTTCGACA,0.0168
11,AGAACGAT,0.0309
12,ACTAGTAG,-0.00771
13,GCGTGTCA,0.0816
14,GCCCGGGC,0.0454
15,ACTCCAGA,-0.011
16,CTTGAAAC,0.479
17,CACTCTTA,-0.0739
18,GACACCTC,-0.0961
19,CCAGCCCA,-0.111
20,CCTGAGGC,-0.23
21,AAAGCGTG,0.0993
22,AGGGCGAA,-0.0682
